In the supplement of paper PMC3334620:
In all, about 33,000 sequences were measured (“E-score (-0.5 to 0.5)”: median about -0.035, highest 2% from about 0.35 on). The list shows a part of the results.

Target: T1, Pdr3 (UniProt P33200)
T1 sequence: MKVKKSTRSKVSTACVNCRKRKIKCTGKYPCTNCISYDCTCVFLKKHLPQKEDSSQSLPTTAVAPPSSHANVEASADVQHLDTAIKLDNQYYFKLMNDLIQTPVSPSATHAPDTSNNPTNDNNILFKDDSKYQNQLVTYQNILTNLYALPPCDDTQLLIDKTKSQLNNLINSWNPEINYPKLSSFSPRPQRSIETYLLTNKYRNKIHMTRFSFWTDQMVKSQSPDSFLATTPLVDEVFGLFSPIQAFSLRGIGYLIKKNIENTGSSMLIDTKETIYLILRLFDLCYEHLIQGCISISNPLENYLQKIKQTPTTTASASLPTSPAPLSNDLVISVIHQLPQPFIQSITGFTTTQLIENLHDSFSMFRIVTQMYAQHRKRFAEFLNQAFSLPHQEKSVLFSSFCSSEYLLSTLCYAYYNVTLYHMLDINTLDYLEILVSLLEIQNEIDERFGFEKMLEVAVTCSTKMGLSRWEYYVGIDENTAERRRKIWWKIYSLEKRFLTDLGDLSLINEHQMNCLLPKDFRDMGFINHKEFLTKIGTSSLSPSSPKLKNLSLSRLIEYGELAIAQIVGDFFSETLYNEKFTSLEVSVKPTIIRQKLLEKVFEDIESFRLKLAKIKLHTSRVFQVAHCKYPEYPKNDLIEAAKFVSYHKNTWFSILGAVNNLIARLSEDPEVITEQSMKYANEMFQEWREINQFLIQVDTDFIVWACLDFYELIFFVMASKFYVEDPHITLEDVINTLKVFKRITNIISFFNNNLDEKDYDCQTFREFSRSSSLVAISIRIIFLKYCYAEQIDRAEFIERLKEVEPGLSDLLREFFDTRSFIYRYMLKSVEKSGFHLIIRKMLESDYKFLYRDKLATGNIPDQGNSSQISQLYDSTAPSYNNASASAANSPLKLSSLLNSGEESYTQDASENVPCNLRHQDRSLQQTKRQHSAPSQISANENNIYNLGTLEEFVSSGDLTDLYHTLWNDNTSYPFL
Test: PBM E-score (8-mer binding enrichment) (E-score (-0.5 to 0.5)); higher = stronger / more preferred TF binding; most listed sequences are background and not binding sites
Settings: protein concentration: 200 nM; construct: GST-full length
Outline: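 Universal all-10-mer Agilent arrays, fresh or stripped once, were converted to double-stranded form by primer extension. GST-tagged yeast transcription factors from PURExpress in vitro transcription/translation, full-length or DNA-binding domain only, were applied at about 100-200 nM and detected with fluorescent anti-GST. After masliner normalisation, the Universal PBM Analysis Suite scored each ungapped eight-base word together with its reverse complement by E-score.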

Sequence | PBM E-score
CTCCCCGA | 0.053
CAAATCTG | -0.116
CACTATGG | -0.157
CTTTACGC | -0.178
CAATCCAG | -0.098
AGCGTCAT | -0.185
CAAAGCGG | 0.0507
AGAGTGTG | -0.227
ACAGTTAG | -0.123
ACACATAG | -0.164
GACTCGTA | -0.249
GAGCCTAA | -0.166
ATAATTCA | 0.00953
GAAGGCGC | -0.155
CGTTAACG | 0.167
CAAGAACC | -0.0533
TGCCGTAA | -0.187
TCTGACAA | -0.217
CCGTTCCA | 0.207
CGCAACTA | 0.0897
AGCTATTA | -0.0411
AGAAACCA | -0.0168
GGGGAAAA | 0.0506
ATCCTAGC | -0.212
GTTCTACA | -0.312

Sequence | PBM E-score
CGGCTGCA | 0.209
CATAGGAC | -0.25
CAGAACGA | -0.147
AGATCGCC | -0.0825
GCTACGTA | -0.0852
ACTTGCAT | -0.00547
ATTGCAGC | 0.0135
ACAGCGGG | 0.0641
CCCATACA | -0.178
ACCTAAAC | -0.0256
ATGCCTGG | -0.172
ACCCGTGC | 0.0845
CAAGATTG | -0.0446
CCTGCAGG | 0.0988
CATAGTCA | -0.157
AGAAGAGG | -0.146
ATAACTAC | -0.0673
CACCCCTC | -0.0494
CGAGTCTC | -0.216
CGACCTAA | 0.137
GTTTATAA | 0.156
CTTTATTC | -0.0926
CCCTGGCC | -0.121
GCCACCGC | 0.122
ATCGGTTA | 0.112

Sequence | PBM E-score
GAAGAAAA | 0.0392
TCGCCAAA | -0.153
ATTTGCTG | -0.0695
CCTCATTA | -0.0236
AATATCAC | 0.0412
CAGCGACC | -0.0515
AAGTCAAC | -0.205
AGTTCTCG | 0.0419
AAAGGCAT | 0.0123
AGCTGAGC | 0.0762
CTGCGATC | -0.119
GGAGGCGA | -0.0273
AATCCTTG | 0.0606
GAGCCCCC | -0.218
CCTTGCTA | -0.0832
CAAGCGGA | 0.299
ACGGCTCT | 0.0134
ATCCCCGA | 0.303
CAATAAGA | -0.172
ATACTTCA | -0.232
ATCTTAAA | -0.124
CGTCTGAC | -0.077
CTAGTGAG | -0.0557
CTTAACTA | -0.171
ATCTTAAG | -0.188

Sequence | PBM E-score
ATCAGAAA | -0.0967
AACGCCCC | 0.179
ATTCTCAG | -0.127
AATAGGGC | -0.119
ACTTTCAT | -0.144
CAGGTGGA | -0.213
TGTAACAA | -0.0769
GCAATAGA | -0.166
AACACGTT | -0.0474
CTCCTTTA | -0.15
AAGAAATA | -0.0975
ATGCTATA | -0.21
ATCACAAC | -0.0179
TCTGCAAA | -0.146
AGCGCCGA | 0.109
AGAGCCTA | -0.239
GTACATAC | -0.0511
GAAAAAGC | 0.153
ACGAAAAG | -0.0456
CAACTGAC | -0.106
GCTCCACA | -0.188
CGGTGAAA | 0.224
AAGAAGAT | 0.0216
GGGGCACC | -0.0217
ATACAATG | 0.00582

Sequence | PBM E-score
AATGGGAA | -0.205
AACATGGC | -0.108
ATGAGTAA | -0.0184
AGAAAGTG | -0.177
ATTGCATC | -0.0463
CTTTTCCC | -0.106
AAAGTAAA | -0.16
TAAAAGCA | -0.133
AGAATAAT | -0.11
TCTTGGAA | -0.0351
AGGCCACC | 0.00968
AGGCTCAC | -0.172
CTTCGGAA | 0.438
GACCCCCC | -0.248
ATACTTCG | 0.152
AGCATTTC | -0.0981
CACTTAAA | -0.165
AAAGTTGA | -0.0975
CCTCTACA | -0.121
ATGTTTGG | -0.0599
AAGCGCCG | 0.28
CCAACAAC | -0.0644
GATCTTGA | -0.0386
GGACGAAA | 0.223
GCCATGCC | 0.13

Sequence | PBM E-score
GCATTGGA | 0.00526
GAAGGGTA | 0.0783
ATACTAAT | -0.0439
GTGGGTTA | -0.0589
CATAATAC | -0.164
CAGATATG | 0.0599
ATTCTAGC | -0.215
TCAAAGAA | -0.191
AAGCGATG | -0.14
GGAGATTA | 0.0129
TGGGCCAA | -0.0919
GAAAACAA | 0.0322
CAGGTGGG | 0.0371
CAAGATAC | -0.177
ATAAGCAT | -0.169
ATGTATAA | -0.0267
ATGGAAGA | -0.243
AATCCCAC | -0.0475
GCTCCAGA | -0.175
CCCCAGCC | -0.0625
CGTCGCCC | -0.00563
ATGTGGGC | -0.116
CATTACGC | 0.0615
CGATAGGA | -0.0249
ACGGACGG | 0.245

Sequence | PBM E-score
CACAGCTA | -0.226
AGCGACAC | -0.133
AACTGTCG | -0.133
AATCCTCC | 0.121
ACGGCTGA | -0.0133
CCTTCTTC | -0.161
CGGTGATC | 0.0157
TGAACGCA | -0.0241
AATCTTCG | 0.00208
AGCCGACA | -0.124
CTATCTCC | 0.0105
TAAGGATA | -0.00952
ATTATTCA | 0.0491
CCTTTATC | -0.126
CTCCCAGC | 0.0151
AGACTACG | -0.134
GAGGCTCA | -0.129
GCATACAC | -0.171
AAATATAG | 0.0161
CATTTTGA | -0.235
CGACCCCG | 0.241
CGCTTAAA | -0.0534
